Results reported in PubChem BioAssay AID2060617 (Molecular Pharmacology Branch, DTP, NCI, 2025).
Some entries of the source have several records that differ or are many. This list holds those alone. An entry can have further records. Values given together are repeats across runs, samples, wells, individuals or studies. Marks such as (2×) count equal records among those shown.

Tested on: 485368-065-R4-J2-PDC spheroids with HUVEC/MSC, viability
Assay: Anticancer human tumor 485368-065-R4-J2-PDC patient-derived pancreatic carcinoma cell line growth inhibition [CLK]
Description: A high-throughput screen of multi-cell type tumor spheroids was designed to identify active combinations of […] and targeted small molecules. Complex spheroids include a stromal component modeled by human endothelial cells (HUVEC) and fibroblasts modeled by human mesenchymal stem cells (MSCs). The concentration ranges selected for each drug and investigational agent were based upon clinically achievable concentrations if the clinical Cmax of the agent was known.
Compounds. The drugs and investigational agents: cirtuvivint (SM08502; NSC835563), CC-671 (NSC850746), vemurafenib (NSC761431), tapotoclax (NSC804041), sotorasib (NSC818433), adagrasib (NSC831453), MRTX-1133 (NSC836407), BAY2416964 (NSC825713), copanlisib (NSC816437), inavolisib (NSC800729), abemaciclib (NSC768073), osimertinib (NSC779217), entinostat (NSC756642), eltanexor (KPT-8602, NSC794443), venetoclax (NSC766270), ceralasertib (NSC777638), bortezomib (NSC756655), olaparib (NSC753686), talazoparib (NSC767125), alisertib (NSC759677), peposertib (NSC802822), gemcitabine (NSC613327), 5-fluorouracil (NSC19893), SN-38 (NSC673596), oxaliplatin (NSC266046), paclitaxel (NSC125973), and doxorubicin (NSC123127), were obtained from the National Cancer Institute (NCI) Developmental Therapeutics Program Chemical Repository. […] If the clinical Cmax for an agent had not been determined, the highest concentration tested was 10 microM. […]
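Also: spheroids exposed to compounds for seven days.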
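For viability, T/C in this document: 100% = DMSO vehicle control wells.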

SMILES | IC50 (compound alone) | viability, T/C (compound alone 0.1 µM, stronger effect = lower value)
CC(=O)O[C@H]1C(=O)[C@@]2(C)[C@H]([C@H](OC(=O)c3ccccc3)[C@]3(O)C[C@H](OC(=O)[C@H](O)[C@@H](NC(=O)c4ccccc4)c4ccccc4)C(C)=C1C3(C)C)[C@]1(OC(C)=O)CO[C@@H]1C[C@@H]2O | 102 nM and > 10 µM | 
CN1CCN(c2cc(C(=O)Nc3cc4cc(-c5cnn(C)c5)ccc4cn3)ccn2)CC1 |  | 105, 112, 104, 102 (2×), 99.2, 97.6, 98.7, 96, 85.2, 101, 94.5%
